# Laboratory results: PubChem BioAssay AID1345083 (National Center for Advancing Translational Sciences (NCATS), 2018)
# About 6,200 (6.6%) of roughly 94,000 compounds were called active. The shares of active, inactive and inconclusive entries below differ from those in the screen. The call rests on the fitted dose curve; in most records, active means well fitted inhibition curve with a large enough effect; inconclusive means small, poorly fitted or top-dose-only effect; inactive means flat fitted curve, though single readings scatter. Potencies beside an inconclusive call are fits to weak or partial responses and may not hold up.
# Test: Cytotoxic Profiling in HEK 293 Cell Line of Diverse Libraries Using Quantitative High-Throughput Screening; further: nearly all actives have a fitted effect of over 60% in size
# Conditions: HEK 293 viability, ATP luminescence (CellTiter-Glo), 48-72 h; activity change, negative = cytotoxicity: at 115 µM (top of the series) unless noted; series mostly up to 115 µM
# How it was run: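 HEK 293 cells seeded at 250 cells/well were exposed to compound for 48 or 72 hr at 37 degree Celsius. Viability taken as ATP content by CellTiter-Glo luminescence.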
# On the % scale 0 is the no-effect control and ±100 the full control effect; potency means the concentration at half of the fitted maximal effect; tags describe the fitted curve by direction and shape.
Structure (SMILES),Potency,outcome,"activity change, negative = cytotoxicity"
CNC(=O)[C@@H]1C[C@H](Oc2ccccc2)CN1C(=O)Cn1c(=O)oc2ccccc21,"inconclusive: 100 µM [inhibitor, single point]",–,–
CC1CCN(C(=O)[C@@H](C)C2CC[C@@]3(C)CC[C@H](NC(=O)c4cncnc4)[C@@H](C)[C@@H]3[C@H]2O)CC1 (stereo partly drawn),–,inactive,–
COCC(=O)N1CCN(c2nccc(Nc3ccc(OC)cc3)n2)CC1,"inconclusive: 89.1 µM [inhibitor, single point]",–,–
COc1ncccc1-c1nc2cc(C(=O)NC(C)C)ccc2o1,"inconclusive: 56.2 µM [inhibitor, partial curve, poor fit]",–,–
Cn1cnc(S(=O)(=O)N2CCC(Oc3ccc(-c4noc(C5CC5)n4)cc3)C2)c1 (stereo not drawn),"inconclusive: 79.4 µM [inhibitor, single point]",–,–
O=[S+]1([O-])N(Cc2ccccc2)C[C@@H](O)[C@]12CCN(Cc1ccc(C(F)(F)F)nc1)C2,"inconclusive: 56.2 µM [inhibitor, partial curve, poor fit]",–,–
COc1ccc(C(=O)N2CCCN(c3ccc4nnc(C)n4n3)CC2)cc1,–,–,inactive: -1.95%
N#Cc1cccc(-c2cn3c(n2)N(C(=O)c2ccsc2)CCC3)c1,"inconclusive: 50.1 µM [inhibitor, partial curve]",–,–
CN(Cc1cccc2cnccc12)C(=O)C(c1ccccc1F)N(C)C (stereo not drawn),"inconclusive: 56.2 µM [inhibitor, partial curve, poor fit]",–,–
COc1ccc(-c2nc3c(c(-c4ccccc4)n2)CN(C(=O)c2ccccc2)CC3)cc1,"inconclusive: 50.1 µM [inhibitor, partial curve, poor fit]",–,–
CN(C)c1ccc(C(=O)N2CCCC(n3cc(-c4nc(-c5ccccc5)no4)nn3)C2)cc1 (stereo not drawn),"inconclusive: 39.8 µM [inhibitor, partial curve, poor fit]",–,–
CCOc1ccccc1C1NC(=O)N(CC(=O)Nc2ccc(C)cc2)C2=C1C(=O)OC2 (stereo not drawn),"inconclusive: 44.7 µM [inhibitor, partial curve, poor fit]",–,–
O=[S+]([O-])(c1cccs1)N1CCCN(c2ccc3nnc(C4CC4)n3n2)CC1,"inconclusive: 89.1 µM [inhibitor, single point]",–,–
COc1ccccc1CN1CCNc2cc(-c3ccccc3)ncc2C1,"inconclusive: 39.8 µM [inhibitor, partial curve, poor fit]",–,–
Cc1nn(-c2ccccc2)c2c1C(C1CC1)N(C1CN(C(=O)c3ccccc3)C1)C2=O (stereo not drawn),"inconclusive: 44.7 µM [inhibitor, partial curve, poor fit]",–,–
CN(Cc1cccc(-c2nn[nH]n2)c1)Cc1cn(-c2ccccc2)nn1,–,–,inactive: -6.93%
CC1(C(=O)N2CC=C(c3ccccc3)CC2)CCCCC(=O)N1 (stereo not drawn),–,–,inactive: -19.7%
COC(=O)c1ccc2nc(CO[C@H]3CN(C(=O)c4ccccc4)C[C@H]3F)[nH]c2c1,–,–,inactive: -10.3% [at 172 µM]
COc1ccc(C(=O)N2CCC3(CC2)NC(=O)N(c2ccccc2Cl)N3)cc1,"inconclusive: 50.1 µM [inhibitor, partial curve, poor fit]",–,–
CC[C@@]1(O)CCN(C(=O)c2cccnc2N(C)C2CCCCC2)C[C@H]1O,–,–,inactive: -4.32%
O=C(c1ccc2c(c1)OCO2)N1CCn2c(nnc2-c2ccc(Cl)cc2)C1,–,–,inactive: 1.93%

Structure (SMILES),Potency,outcome,"activity change, negative = cytotoxicity"
C[C@@H]1CN(C(=O)NCc2ccccc2F)CC[C@@]1(O)C1CCOCC1,–,inactive,–
O=C(NCC(F)(F)F)[C@@H]1CCCN1c1nccc(Nc2ccccc2Cl)n1,"inconclusive: 89.1 µM [inhibitor, single point]",–,–
CC1=C[C@@H](CNC(=O)CC(C)(C)C)[C@H](C(C)C)C[C@H]1CC(=O)NC1CCCC1,"inconclusive: 100 µM [inhibitor, partial curve, poor fit]",–,–
O=C(Nc1ccccc1F)N1CC2CCC(C1)N2Cc1ccc(-c2ccsc2)cc1,"inconclusive: 56.2 µM [inhibitor, partial curve, poor fit]",–,–
CN(CC(O)COc1cccc(CNCCc2ccc(F)cc2)c1)C1CCCCC1 (stereo not drawn),active: 17.8 µM,–,–
COCCOC1CN(C2CCN(Cc3ccc(C)o3)CC2)C12CCCCC2 (stereo not drawn),–,–,inactive: -16.9%
Cc1ccc(-c2nnc3ccc(NCc4ccc5c(c4)OCO5)nn23)nc1,"inconclusive: 112 µM [inhibitor, partial curve]",–,–
CC1(c2cccnc2)N(CCOc2ccccc2)C(=O)OC12CCN(C(=O)CN1CCOCC1)CC2 (stereo not drawn),–,–,inactive: -2.3%
O=C(NCCc1cnc[nH]1)c1ccc2nc(-c3ccc(F)cc3)cn2c1,"inconclusive: 56.2 µM [inhibitor, partial curve, poor fit]",–,–
CC(=O)Nc1ccccc1-c1c(C)nn2c1N(Cc1ccccc1)CCC2,"inconclusive: 126 µM [inhibitor, single point]",–,–
C=CCCC(CN1CCCOCC1)Oc1cc(CCC)nc(C)n1 (stereo not drawn),–,–,inactive: -8.74%
CCc1ccc(CNC(=O)c2ccc3c(c2)N(CC)C2CCCCCN2C3=O)cc1 (stereo not drawn),"inconclusive: 50.1 µM [inhibitor, partial curve, poor fit]",–,–
O=C(Nc1ccccc1)N1CCCC(c2nn(-c3ccccn3)c(=O)[nH]2)C1 (stereo not drawn),"inconclusive: 100 µM [inhibitor, single point]",–,–
CN1CCN(Cc2cn3c(=O)n(C)cc(-c4ccccc4F)c3n2)CC1,"inconclusive: 126 µM [inhibitor, single point]",–,–
COc1ccc(-c2cc(N3CCCN(C(=O)CCc4ccccc4)CC3)n[nH]2)cc1,"inconclusive: 50.1 µM [inhibitor, partial curve, poor fit]",–,–
NC(=O)c1nc(CNC(=O)[C@H]2CCC[C@H](O)C2)no1,"inconclusive: 89.1 µM [inhibitor, single point]",–,–
N#Cc1cccc(C(=O)NC2CCN(c3cc(-c4cccs4)[nH]n3)CC2)c1,"inconclusive: 79.4 µM [inhibitor, single point]",–,–
COc1ccc(OC)c(-c2ncc3c(n2)OCCN(c2cccc(C(F)(F)F)c2)C3=O)c1,–,–,inactive: -25%
O=C1COc2ccc(NCc3cccs3)nc2CN1Cc1ccc(C(F)(F)F)cc1,active: 79.4 µM,–,–
Cc1nn(Cc2ccccc2)c(C)c1[C@@H]1C=C[C@@H](NS(=O)(=O)c2ccccc2)C1,"inconclusive: 79.4 µM [inhibitor, partial curve, poor fit]",–,–
COc1cccc(C(=O)Nc2cc(C3CC3)nn2C)c1,–,–,inactive: -3.99% [at 172 µM]

Structure (SMILES),Potency,outcome,"activity change, negative = cytotoxicity"
Fc1ccc(-c2ccc(CNCc3ccco3)o2)cc1,"inconclusive: 89.1 µM [inhibitor, partial curve, poor fit]",–,–
COc1ccc(-c2cc(N3CCCC(NC(=O)c4cccs4)C3)n[nH]2)cc1 (stereo not drawn),"inconclusive: 50.1 µM [inhibitor, partial curve, poor fit]",–,–
CCN(C(=O)CN1C(=O)NC(c2ccccc2Cl)C2=C1COC2=O)c1cccc(C)c1 (stereo not drawn),"inconclusive: 44.7 µM [inhibitor, partial curve, poor fit]",–,–
CCN1c2cc(C(=O)Nc3cc(F)ccc3F)ccc2C(=O)N2CCCCCC21 (stereo not drawn),"inconclusive: 39.8 µM [inhibitor, partial curve]",–,–
CN(CCC(O)c1ccccc1)C(=O)c1ccc2oc(-c3cccc(F)c3)nc2c1 (stereo not drawn),"inconclusive: 56.2 µM [inhibitor, partial curve, poor fit]",–,–
O=C(CCC1CCCC1)NCc1nnc2c(-c3nc(C4CC4)no3)cccn12,–,–,inactive: 4.98%
COc1ccc(-c2ccc(C(=O)Nc3cccc(F)c3)c(Cl)c2)nn1,"inconclusive: 50.1 µM [inhibitor, partial curve, poor fit]",–,–
C=CCNC(=O)N[C@H]1CCN2C(=O)c3cc(Br)ccc3NC(=O)[C@@H]2C1,"inconclusive: 25.1 µM [inhibitor, full curve]",–,–
Cc1cc(C(=O)N2CC(F)(F)C[C@H]2c2nc(C3CC3)no2)ccn1,–,–,inactive: 0.603%
O=C(NCC1CN(Cc2ccccc2)CC12CN(c1ccccc1)C2)Nc1ccccc1 (stereo not drawn),"inconclusive: 70.8 µM [inhibitor, full curve, poor fit]",–,–
COCCNc1ncc(-c2cccc(N)c2)c2c1OCC2,"inconclusive: 8.91 µM [inhibitor, full curve, poor fit]",–,–
COC1C(=O)N(CC2CC2)C12CCN(C(=O)C(C)C)CC2 (stereo not drawn),–,inactive,–
O=C(NC1CCN(c2cc(-c3ccccc3)[nH]n2)CC1)c1cccc(F)c1,"inconclusive: 56.2 µM [inhibitor, partial curve, poor fit]",–,–
COc1ccc(CN2C[C@@H](CO)[C@H](c3ccncc3)C2)c(OC)c1,"inconclusive: 50.1 µM [inhibitor, partial curve, poor fit]",–,–
COc1cccc(-c2cc(C(=O)NCCCOC(C)C)c3cnn(C)c3n2)c1,"inconclusive: 50.1 µM [inhibitor, partial curve, poor fit]",–,–
C=CCNC(=O)C(NC(=O)c1ccc(OC)cc1)C1CCN(C(=O)c2cccc(OC)c2)CC1 (stereo not drawn),–,inactive,–
COCCCNC(=O)c1ccc2c(c1)n(Cc1ccccc1)c(=O)c1ccnn12,"inconclusive: 25.1 µM [inhibitor, full curve]",–,–
O=C(NCc1cccc(C(F)(F)F)c1)c1ccc2nnc(-c3ccoc3)n2c1,"inconclusive: 50.1 µM [inhibitor, partial curve, poor fit]",–,–
Cc1cccc(NC(=O)Nc2ccc(C)n(CC(=O)N(C)C)c2=O)c1,–,–,inactive: 8.04%
CC(C)(CC(=O)O)CC(=O)N[C@H]1CO[C@H]2[C@@H]1OC[C@@H]2n1nnnc1-c1ccccc1,–,–,inactive: -5.18% [at 172 µM]
CC1(C)C(=O)N(Cc2ccccc2)[C@H]2CN(Cc3ccccc3)C[C@H]2[S+]1(=O)[O-],"inconclusive: 100 µM [inhibitor, partial curve]",–,–
